# From paper PMC4336329 (PLoS ONE, 2015)
# The whole screen tested about 310,000 compounds, of which about 2,200 (0.71%) showed an effect of 50% or more. The effect is printed as a negative number. This is one part of the list.
# Molecular target: human ether-à-go-go-related gene (hERG) potassium channel (human, UniProt Q12809)
# Test: primary screen, population patch clamp on CHO cells stably expressing hERG
# Sequence of human ether-à-go-go-related gene (hERG) potassium channel (Q12809 whole entry, looked up): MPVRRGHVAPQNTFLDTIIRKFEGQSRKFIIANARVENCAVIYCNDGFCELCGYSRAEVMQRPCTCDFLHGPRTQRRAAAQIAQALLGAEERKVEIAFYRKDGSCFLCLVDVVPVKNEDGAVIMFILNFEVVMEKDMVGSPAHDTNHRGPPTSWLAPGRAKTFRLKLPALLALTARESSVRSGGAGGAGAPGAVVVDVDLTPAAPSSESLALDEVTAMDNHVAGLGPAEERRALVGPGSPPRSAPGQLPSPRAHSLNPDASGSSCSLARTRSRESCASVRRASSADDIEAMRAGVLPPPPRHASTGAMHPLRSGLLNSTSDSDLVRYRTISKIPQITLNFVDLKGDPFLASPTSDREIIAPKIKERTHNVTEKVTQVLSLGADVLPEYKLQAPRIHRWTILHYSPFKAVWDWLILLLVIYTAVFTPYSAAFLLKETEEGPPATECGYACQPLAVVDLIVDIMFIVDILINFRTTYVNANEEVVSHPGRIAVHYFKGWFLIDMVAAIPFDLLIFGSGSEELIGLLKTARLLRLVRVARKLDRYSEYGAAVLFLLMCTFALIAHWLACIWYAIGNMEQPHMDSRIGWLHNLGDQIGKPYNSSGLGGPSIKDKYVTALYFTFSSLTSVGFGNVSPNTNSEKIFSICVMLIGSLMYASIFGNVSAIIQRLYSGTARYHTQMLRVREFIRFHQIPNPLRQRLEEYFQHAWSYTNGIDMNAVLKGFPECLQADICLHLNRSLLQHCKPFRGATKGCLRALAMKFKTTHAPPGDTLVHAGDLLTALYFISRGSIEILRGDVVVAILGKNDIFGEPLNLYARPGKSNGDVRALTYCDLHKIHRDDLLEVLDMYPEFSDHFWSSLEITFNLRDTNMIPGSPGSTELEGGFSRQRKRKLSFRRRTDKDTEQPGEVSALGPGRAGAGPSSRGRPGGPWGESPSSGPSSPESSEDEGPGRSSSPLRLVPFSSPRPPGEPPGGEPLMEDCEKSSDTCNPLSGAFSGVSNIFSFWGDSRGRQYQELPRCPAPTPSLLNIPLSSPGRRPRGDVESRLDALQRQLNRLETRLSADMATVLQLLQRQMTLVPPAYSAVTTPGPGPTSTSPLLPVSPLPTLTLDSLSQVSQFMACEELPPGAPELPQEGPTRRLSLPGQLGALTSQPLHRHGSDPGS
row,SMILES,"hERG current change (%, negative = inhibition) at 1uM [%]"
1,CN(C)CCCN(C(=O)c1ccc(S(=O)(=O)N2CCCC2)cc1)c1nc2ccc(Br)cc2s1.Cl,11.7
2,O=C(CCCCC(=O)NNC(=O)COc1ccccc1)NNC(=O)COc1ccccc1,4.18
3,O=C(C1CCCN(c2ncnc3c2nc2n3CCCCC2)C1)N1CCN(c2ccc(Cl)cc2)CC1 (centres unmarked),7.33
4,COC(CNC(=O)c1ccc(CS(=O)(=O)c2ccc(C)cc2)o1)OC,4.29
5,CCOC(=O)COc1cc(N2C(=O)CSCC2=O)c(Cl)cc1Cl,5.92
6,CCOc1ccc(-n2c(C)nc(O)c2N=Nc2ccccc2)cc1,16.4
7,c1cn2c(Nc3ccc4c(c3)OCCO4)c(-c3ccc(N4CCOCC4)cc3)nc2cn1,-4.08
8,Cc1cc(C)n2nc(SCC(=O)c3c(N)n(CC(C)C)c(=O)n(C)c3=O)nc2n1,5.54
9,Cc1ccc(CC(=O)NCc2ccc3c(c2)OCO3)cc1,5.65
10,CC(C)N1C/C(=C/c2ccsc2)C(=O)/C(=C/c2ccsc2)C1,-11.3
11,O=[N+]([O-])c1ccccc1CN1CCN(Cc2ccccn2)CC1,15.4
12,CC(CCc1ccccc1)NC(=O)CSc1nccc(=O)[nH]1 (centres unmarked),7.61
13,COC(=O)CC(NC(=O)Nc1ccc(C)cc1)c1cccc([N+](=O)[O-])c1 (centres unmarked),14.1
14,CN1CCC(=O)N(CCOc2ccccc2)CC1,16.1
15,Cc1ccc(C)c(N2C(=O)c3ccc(C(=O)OCC(=O)c4c(N)n(C)c(=O)n(C)c4=O)cc3C2=O)c1,10.8
16,CCC1=NN=C(c2ccc(F)cc2)C(c2c[nH]c3ccccc23)N1O (centres unmarked),4.78
17,Cn1nc(C(=O)OCC(=O)Nc2ccc(S(N)(=O)=O)cc2)c2ccccc2c1=O,4.73
18,CCOCCCNC(=O)CN1C(=O)CSc2cc(S(=O)(=O)N3CCCCCC3)ccc21,-1.51
19,Cc1ccc(OCC(=O)N2CCCCCCC2)cc1C,4.51
20,S=c1[nH]nc(COc2ccccc2)n1/N=C/c1c(Cl)cccc1Cl,14
21,O=C(CCOc1ccccc1)Nc1ccc(Br)cc1,17.2
22,CCOC(=O)c1c(C)[nH]c(C)c1C(=O)CSc1nnc(-c2ccncc2)n1Cc1ccccc1,-4.01

row,SMILES,"hERG current change (%, negative = inhibition) at 1uM [%]"
1,O=C(OCC1O[C@@H](OC(=O)c2cc(O)c(O)c(O)c2)[C@@H](OC(=O)c2cc(O)c(O)c(O)c2)[C@@H](OC(=O)c2cc(O)c(O)c(O)c2)[C@@H]1OC(=O)c1cc(O)c(O)c(O)c1)c1cc(O)c(O)c(O)c1 (some centres unmarked),21
2,O=C(Nc1ccc(Cl)cc1C(=O)N1CCOCC1)c1cccc([N+](=O)[O-])c1,11.6
3,COc1cccc(NC(=O)CSc2nnc(Cn3nnc4ccccc43)n2C)c1,-13.2
4,CCOC(=O)CSc1nc2c(sc(=S)n2CCc2ccccc2)c(=O)n1Cc1ccco1,14
5,COc1ccccc1CC(NC(C)=O)C(=O)NC1CCN(C(=O)Nc2ccc(F)cc2)CC1 (centres unmarked),6.65
6,O=C(C[n+]1cccc(O)c1)NCc1ccc(Cl)cc1.[Cl-],18.6
7,O=Cc1ccccc1-n1cccn1,11.2
8,FC(F)(F)c1cccc(N2CCC(N=CN3CCCCCC3)=N2)c1,12.5
9,CCCCn1c(SCC(=O)Nc2cc(C)[nH]n2)nc2ccsc2c1=O,4.58
10,Cc1ccc(CSCCNC(=O)CSCc2ccc([N+](=O)[O-])cc2)cc1,-18.1
11,S=c1[nH]nc(-c2ccccc2)n1/N=C/c1ccc(-c2ccccc2Cl)o1,14.5
12,CCN1C(=O)c2cccc3c(NC(=O)c4ccc(S(=O)(=O)N5CCOCC5)cc4)ccc1c23,13.1
13,Cc1ccc(C)c(N2CCN(S(=O)(=O)c3ccc4c(c3)C(C)(C)C(=O)N4C)CC2)c1,3.29
14,COc1ccc(NC(=O)N(Cc2cc3cc(OC)ccc3[nH]c2=O)CC2CCCO2)cc1 (centres unmarked),3.41
15,COC(=O)c1nc(NC(=O)c2cc(OC)c(OC)c(OC)c2)n[nH]1,10.8
16,Cc1cc([N+](=O)[O-])ccc1NC(=O)C1CCCO1 (centres unmarked),2.73
17,O=C(NNS(=O)(=O)c1ccc(F)cc1)c1cc2ccccc2cc1O,12.9
18,Cc1ccc(-c2ccc(C(=O)O)o2)cc1Cl,10.4
19,O=C(NCC1CCCN(C(=O)c2cscn2)C1)c1ccccc1Cl (centres unmarked),10.9
20,COc1ccc(NC(=S)N(CCC(C)C)C2CCN(C(C)=O)CC2)cc1,15.9
21,CC(OC(=O)c1cc(=O)[nH]c2ccccc12)C(=O)NC1CCCCC1C (centres unmarked),3.96
22,CN(C)C1=NCCN1CCc1ccc(F)cc1,12.6

row,SMILES,"hERG current change (%, negative = inhibition) at 1uM [%]"
1,O=C(c1ccc(F)cc1)N1CCCCC(Sc2nnnn2-c2ccccc2)C1=O (centres unmarked),-6.62
2,COc1ccc(OCCCC(=O)Nc2cc(S(=O)(=O)N3CCCCC3)ccc2OC)cc1,2.18
3,COc1ccc(NC(=O)CN(C)C2CCS(=O)(=O)C2)cc1 (centres unmarked),25.6
4,COc1ccc(N2CCN(C(=O)c3cc(C)oc3C)CC2)cc1,2.63
5,CN(C)C1=NCCN1CCC1CCCCC1,11.4
6,Cc1ccc(S(=O)(=O)C2(C(=O)N(C)C3CCCCC3)CC2)cc1,2.19
7,O=C(CSc1nc2cc(Cl)ccc2s1)N1CCN(C(=O)c2ccco2)CC1,-34.3
8,CCN1C(=O)N[C@H](c2ccc(Br)cc2)C(C(C)=O)=C1C,11.7
9,COc1ccccc1Oc1cn[nH]c1-c1ccc(OCC(=O)NN)cc1O,13.1
10,O=C(CSc1ncc(C(F)(F)F)cc1Cl)N1CCN(S(=O)(=O)c2ccc3ccccc3c2)CC1,-0.356
11,c1ccc(CCn2nnnc2C(c2cccs2)N2CCOCC2)cc1 (centres unmarked),0.906
12,COc1cc(/C=N/NC(=O)c2ccncc2)cc2c1OCO2,16.9
13,Cc1cc(OCCCC(=O)N2CCCCC2)cc(C)c1Cl,3.83
14,COc1ccccc1NC(=O)C(C)Nc1ccc(C)c(Cl)c1 (centres unmarked),7.58
15,CCO[C@H]1OC(C(=O)NC2CC2)=C[C@@H](C2CCCCC2)[C@@H]1CCCO,7.91
16,COC(=O)c1sccc1N/N=C(\C)c1ccc(F)c(Cl)c1,9.39
17,COc1cc(CN2CCCC(C(=O)c3ccc(SC)cc3)C2)cc(Cl)c1O (centres unmarked),-3.13
18,O=C(COC(=O)/C=C/c1ccc(C(F)(F)F)cc1)NCCC1=CCCCC1,9.61
19,O=C(CNCC1CCCO1)Nc1ccccc1N1CCOCC1.O=C(O)C(=O)O (centres unmarked),20.1
20,COCCn1c(N)c(N(Cc2ccccc2)C(=O)c2cc3ccccc3o2)c(=O)[nH]c1=O,9.08
21,Cc1ccc(S(=O)(=O)N(C)C)cc1NC(=O)COC(=O)C1COc2ccccc2O1 (centres unmarked),9.85
22,O=C1c2ccccc2C(=O)C12OC2c1cccc2ccccc12 (centres unmarked),-38.8

row,SMILES,"hERG current change (%, negative = inhibition) at 1uM [%]"
1,O=C(Cn1nnc2ccccc2c1=O)NCCc1ccc(Cl)cc1Cl,-1.86
2,Cc1cccc(NC2=NCCCS2)c1C,16.3
3,CC(C)CN(C(=O)CCC(=O)OCc1ccc(Cl)cc1Cl)c1c(N)n(CC(C)C)c(=O)[nH]c1=O,16
4,Cc1nonc1OCCNC(=O)C12CC3CC(CC(C3)C1)C2,-3.37
5,CCn1c(SC(C)C(=O)N2CCOCC2)nc2sc(C)c(C)c2c1=O (centres unmarked),12.3
6,O=C(O)C1CCN(C(=O)CCc2ccccc2)CC1,9.64
7,CC1CCN(C(=O)c2ccc3ccccc3c2)CC1,3.99
8,CCCc1cc(=O)n2nc(N3CCC(C(=O)Nc4cccc(C(C)=O)c4)CC3)sc2n1,-1.65
9,CCOC(=O)c1ccc(Oc2nc(N(C)C)nc(N(C)C)n2)cc1,15.1
10,N#Cc1nc(COc2ccccc2Cl)oc1N1CCCC1,6.25
11,CCCCCCCSc1nc(N)cc(=O)[nH]1,8.02
12,CCN(CC)Cc1c(O)ccc2cc(-c3nc4ccccc4n3C)c(=O)oc12,16.6
13,COC(=O)N/C(C)=C1/NC(=O)c2ccccc2C(c2ccccc2)N1 (centres unmarked),3.84
14,O=C(O)C(CCCCN1C(=O)C2C3C=CC(C3)C2C1=O)N1C(=O)C2C3C=CC(C3)C2C1=O (centres unmarked),2.95
15,NC(=O)NC(=O)CSc1nc2sc(-c3ccccc3)cc2c(=O)n1-c1ccccc1,2.78
16,COCc1[nH][nH]c(=O)c1C=Nc1ccc(Oc2ccccc2)cc1,-0.135
17,O=C(NC1CCCc2ccccc21)C1CCN(C(=O)c2sccc2-n2cccc2)CC1 (centres unmarked),6.11
18,CCOc1ccc(C(=O)NCCN2CCCC2)cc1.Cl,-6.97
19,CCCOc1ccc(C(=O)Nc2ccc(N3CCN(C(C)=O)CC3)cc2)cc1,5.22
20,Cc1ccc(C(=O)c2c[nH]c(C(=O)NCc3cccnc3)c2)cc1,-5.59
